Each structure is given as a SMILES string. About 2,200 (0.71%) of roughly 310,000 compounds showed an effect of 50% or more. The effect is printed as a negative number. This is one part of the list.

The target of this assay is human ether-à-go-go-related gene (hERG) potassium channel (human, UniProt Q12809). In words: primary screen, population patch clamp on CHO cells stably expressing hERG.
Sequence of human ether-à-go-go-related gene (hERG) potassium channel (Q12809 whole entry, looked up): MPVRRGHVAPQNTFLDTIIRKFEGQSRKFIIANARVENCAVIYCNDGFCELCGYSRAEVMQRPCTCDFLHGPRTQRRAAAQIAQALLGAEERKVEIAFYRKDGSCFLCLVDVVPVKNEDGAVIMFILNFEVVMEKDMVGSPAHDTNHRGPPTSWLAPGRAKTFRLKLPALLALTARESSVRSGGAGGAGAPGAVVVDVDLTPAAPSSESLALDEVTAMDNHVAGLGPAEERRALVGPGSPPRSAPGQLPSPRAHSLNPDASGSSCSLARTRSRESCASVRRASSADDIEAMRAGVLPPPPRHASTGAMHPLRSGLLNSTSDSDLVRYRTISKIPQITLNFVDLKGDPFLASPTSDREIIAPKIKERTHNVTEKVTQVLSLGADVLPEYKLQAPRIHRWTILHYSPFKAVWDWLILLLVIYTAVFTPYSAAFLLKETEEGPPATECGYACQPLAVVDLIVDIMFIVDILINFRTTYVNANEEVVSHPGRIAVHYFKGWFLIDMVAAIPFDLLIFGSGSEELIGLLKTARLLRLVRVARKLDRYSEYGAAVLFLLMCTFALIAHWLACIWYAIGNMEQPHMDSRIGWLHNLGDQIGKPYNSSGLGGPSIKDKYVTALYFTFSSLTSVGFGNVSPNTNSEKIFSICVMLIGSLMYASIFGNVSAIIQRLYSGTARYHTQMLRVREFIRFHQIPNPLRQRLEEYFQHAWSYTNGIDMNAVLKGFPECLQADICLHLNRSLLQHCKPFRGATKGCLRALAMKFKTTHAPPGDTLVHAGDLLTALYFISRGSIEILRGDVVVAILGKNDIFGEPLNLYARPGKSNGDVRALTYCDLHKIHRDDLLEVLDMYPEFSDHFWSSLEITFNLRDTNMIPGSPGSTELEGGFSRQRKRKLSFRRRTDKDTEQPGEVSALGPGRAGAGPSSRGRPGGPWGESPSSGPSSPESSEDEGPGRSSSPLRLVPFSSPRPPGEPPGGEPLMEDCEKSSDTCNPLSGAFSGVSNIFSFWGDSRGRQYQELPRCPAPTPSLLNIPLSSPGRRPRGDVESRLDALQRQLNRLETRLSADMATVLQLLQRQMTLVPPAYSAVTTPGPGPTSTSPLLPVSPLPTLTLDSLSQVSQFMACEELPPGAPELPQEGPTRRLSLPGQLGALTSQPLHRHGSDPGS
On to `O=C(O)C(Cc1ccc(O)cc1)N1C(=O)c2ccccc2C1=O` (centres unmarked), for which the “hERG current change (%, negative = inhibition) at 1uM” value was determined as 11.3%.

Consider `O=C(Nc1cc(C(F)(F)F)ccc1Cl)C(Sc1ccccn1)c1ccccc1` (centres unmarked), for which the “hERG current change (%, negative = inhibition) at 1uM” value amounted to 8.72%.

On to `CC(=O)Nc1ccc(S(=O)(=O)N2CCN(Cc3ccncc3)CC2)cc1`, for which the “hERG current change (%, negative = inhibition) at 1uM” value came out at 9.39%.

As for `COc1cccc(C2=CC(=O)C[C@H](c3ccc4c(c3)OCO4)C2)c1OC`, the “hERG current change (%, negative = inhibition) at 1uM” value is on record as 9.88%.

`COc1ccc(NC(=O)CCCC(=O)c2ccccc2)cc1`: the “hERG current change (%, negative = inhibition) at 1uM” value was found to be 16%.

On to `COc1ccc(CNC(=O)CCS(=O)(=O)c2ccc3c(c2)CCN3C(C)=O)cc1`, for which the “hERG current change (%, negative = inhibition) at 1uM” value came out at 21.3%.

As for `CCCCN(CCCC)C(=O)c1cc2ccccc2c(=O)o1`, the “hERG current change (%, negative = inhibition) at 1uM” value was 8.32%.

Consider `Cc1ccccc1CN1CCCN(Cc2ccc(Cl)cc2)S1(=O)=O`, for which the “hERG current change (%, negative = inhibition) at 1uM” value came to 12%.

Turning to `CCOc1ccc(/C(O)=C2/C(=O)C(=O)N(CC3CCCO3)C2c2cccs2)cc1` (centres unmarked), the “hERG current change (%, negative = inhibition) at 1uM” value came to 12.3%.

Turning to `CC(C)C(C(=O)NCc1ccco1)N(CC1CCCO1)C(=O)CNS(=O)(=O)c1ccc(F)cc1` (centres unmarked), the “hERG current change (%, negative = inhibition) at 1uM” value came out at 9.38%.

Turning to `CCOC(=O)c1sc(N(Cc2ccccc2)C(=O)COC(=O)c2ccccc2O)nc1C`, the “hERG current change (%, negative = inhibition) at 1uM” value stood at 1.47%.

With `CC(=O)NC(CC(=O)N(C)C1CCCCC1)c1ccccc1` (centres unmarked), the “hERG current change (%, negative = inhibition) at 1uM” value turned out to be 9.84%.

With `O=C(COC(=O)c1ccc(O)cc1)Nc1ccccc1`, the “hERG current change (%, negative = inhibition) at 1uM” value was 17.2%.

With `Cn1c2ccccc2c(=O)c2cc(C#Cc3ccc(N)cc3)ccc21`, the “hERG current change (%, negative = inhibition) at 1uM” value is listed as 15.8%.

Turning to `COc1ccc(/C(C)=N\NC(=O)C(c2ccncc2)N2CCOCC2)cc1` (centres unmarked), the “hERG current change (%, negative = inhibition) at 1uM” value turned out to be 12.6%.

On to `Cc1ccc(OC(=O)c2ccc([N+](=O)[O-])cc2Cl)cn1`, for which the “hERG current change (%, negative = inhibition) at 1uM” value was 9.22%.

Take `COc1ccccc1NC(=O)Nc1nc(CC(=O)NCc2ccc(F)cc2)cs1`: the “hERG current change (%, negative = inhibition) at 1uM” value was 1.7%.

Consider `O=C(NCc1ccco1)C1Cc2ccccc2CN1S(=O)(=O)c1ccccc1F` (centres unmarked), for which the “hERG current change (%, negative = inhibition) at 1uM” value is -5.25%.

In the case of `Fc1ccc(C2=CCN(C(c3ccc(Cl)cc3)c3nnnn3Cc3ccccc3)CC2)cc1` (centres unmarked), the “hERG current change (%, negative = inhibition) at 1uM” value is 3.95%.

With `CCCCn1c(N)c(N(CC(C)C)C(=O)CSc2ccc3c(c2)OCCO3)c(=O)[nH]c1=O`, the “hERG current change (%, negative = inhibition) at 1uM” value was determined as 8.87%.

For `CC(=O)c1ccc(N(C)C)c2c(N(C)C)cccc12`, the “hERG current change (%, negative = inhibition) at 1uM” value was -14.5%.

For `N#C/C(=C\c1ccc(N2CCOCC2)cc1)c1ccccc1`, the “hERG current change (%, negative = inhibition) at 1uM” value amounted to 19.6%.

As to `CC(=O)c1cccc(Nc2nc3ccccc3n3cnnc23)c1`, the “hERG current change (%, negative = inhibition) at 1uM” value is reported as 11.3%.

Turning to `COC(=O)Cn1cc(S(=O)(=O)NCc2ccc(C)cc2)c2cc([N+](=O)[O-])ccc21`, the “hERG current change (%, negative = inhibition) at 1uM” value came to 4.67%.

Take `CC(C)(C)NC(=O)c1cccc(NC(=O)Cc2cccs2)c1`: the “hERG current change (%, negative = inhibition) at 1uM” value came out at 6.55%.

Turning to `O=C(NCCc1ccc2c(c1)OCCO2)c1ccccc1F`, the “hERG current change (%, negative = inhibition) at 1uM” value is given as 0.244%.

For the molecule `C=CCn1c(O)c(C=NCCN(C)C)c(=O)[nH]c1=O`, the “hERG current change (%, negative = inhibition) at 1uM” value was 10.9%.

With `Cc1c(OCc2ccc(C(=O)O)cc2)ccc2c(-c3ccccc3)cc(=O)oc12`, the “hERG current change (%, negative = inhibition) at 1uM” value came to 17.5%.

`O=C(Cc1ccc(Cl)cc1)NNC(=S)NC(=O)c1cccnc1`: the “hERG current change (%, negative = inhibition) at 1uM” value worked out at 6.61%.

On to `CCOC(=O)C1CCN(C(=O)c2cccc(NS(=O)(=O)c3ccc(Br)cc3)c2)CC1`, for which the “hERG current change (%, negative = inhibition) at 1uM” value is 6.44%.

Consider `Cc1ccc(NC(=O)COC(=O)C(NS(=O)(=O)c2ccc(Cl)cc2)C(C)O)cc1` (centres unmarked), for which the “hERG current change (%, negative = inhibition) at 1uM” value was 7.76%.

Turning to `CC(=O)Nc1ccccc1C(=O)OCc1ccc(F)cc1`, the “hERG current change (%, negative = inhibition) at 1uM” value turned out to be 6.32%.

`CC(C)C(=O)Nc1cccc(NC(=S)NC(=O)c2ccc([N+](=O)[O-])cc2)c1`: the “hERG current change (%, negative = inhibition) at 1uM” value was 4.81%.

For `O=C(Nc1ccc(Nc2ccccc2)cc1)c1ccc(Cl)c([N+](=O)[O-])c1`, the “hERG current change (%, negative = inhibition) at 1uM” value was 6.23%.

Consider `COc1cc2ccccc2cc1-c1nnc(COc2ccccc2)o1`, for which the “hERG current change (%, negative = inhibition) at 1uM” value was 11%.

Consider `O=C(COC(=O)c1ccc(NS(=O)(=O)c2ccc3c(c2)OCCO3)cc1)NC1CCS(=O)(=O)C1` (centres unmarked), for which the “hERG current change (%, negative = inhibition) at 1uM” value worked out at 19.2%.

In the case of `CCCN1CCC(NC(=O)CC2C(=O)NCCN2Cc2ccccc2C)CC1` (centres unmarked), the “hERG current change (%, negative = inhibition) at 1uM” value turned out to be 5.75%.

As to `COc1cccc(OCC(=O)NNC(=O)CCc2ccccc2)c1`, the “hERG current change (%, negative = inhibition) at 1uM” value amounted to 18.3%.

Regarding `COc1ccc(N2CCN(c3nc4ccccc4n3CC(=O)c3ccccc3)CC2)cc1`, the “hERG current change (%, negative = inhibition) at 1uM” value is recorded as 6.29%.

Turning to `CCCc1cc(N2CCCC(C(=O)Nc3cc(Cl)ccc3OC)C2)n2ncnc2n1` (centres unmarked), the “hERG current change (%, negative = inhibition) at 1uM” value is listed as -24.5%.

As for `CN(C)CCCN(C(=O)c1ccc(S(=O)(=O)N2CCc3ccccc32)cc1)c1nc2ccc(F)cc2s1.Cl`, the “hERG current change (%, negative = inhibition) at 1uM” value is given as 6.04%.

For the molecule `CC(C)Cc1ccc(C(C)NC(=O)c2ccc(=O)[nH]c2)cc1` (centres unmarked), the “hERG current change (%, negative = inhibition) at 1uM” value stood at 1.53%.

For the molecule `CC(=O)Nc1ccc(NC(=O)c2cccc(C(=O)OC(C)C)n2)cc1`, the “hERG current change (%, negative = inhibition) at 1uM” value is recorded as 10.8%.

As to `CN(C(=O)c1cccc(NC(=O)c2ccco2)c1)c1ccccc1`, the “hERG current change (%, negative = inhibition) at 1uM” value is on record as 12.4%.

These data come from PMC4336329 (PLoS ONE, 2015).
